The structures appear in SMILES notation. The campaign covered roughly 50,000 compounds. About 800 (1.6%) showed an effect of 50% or more. This is one part of the list.

The assay addresses Bcl-2-like protein 10 (Homo sapiens) (UniProt Q9HD36). In words: Phenotype converters, Bcl-B/TR3 peptide binding displacement, primary biochemical FP (AID 1240).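 Note: 0% = Bcl-B with tracer peptide and DMSO and 100% = tracer peptide lacking Bcl-B.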 Particulars: GST-Bcl-B / FITC-TR3 peptide fluorescence polarization; stronger effect = higher value; compound at 3.75 mg/L. On the technique in general: Polarisation of emitted light reports the rotation of a fluorescent probe.
UniProt Q9HD36, sequence (Q9HD36 whole entry, looked up): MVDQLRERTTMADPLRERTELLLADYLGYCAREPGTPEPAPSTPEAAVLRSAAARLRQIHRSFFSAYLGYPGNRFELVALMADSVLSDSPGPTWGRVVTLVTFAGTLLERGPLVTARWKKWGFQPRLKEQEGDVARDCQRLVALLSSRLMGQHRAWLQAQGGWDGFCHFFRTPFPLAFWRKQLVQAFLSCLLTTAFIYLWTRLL
Take `CN(C)c1ccc(/C=C\c2nc3ccccc3c(=O)n2-c2ccc(O)cc2)cc1`: the displacement was found to be 9%.

Regarding `COC(=O)C(=O)/C(=C\c1ccc(-c2ccccc2[N+](=O)[O-])o1)C(=O)c1ccccc1`, the displacement was found to be 56.7%. `O=C(Cc1ccc(Cl)cc1)N1CCN(C/C=C/c2ccccc2)CC1`: the displacement turned out to be 11.2%.

With `CN1CN(Cc2ccccc2)CN/C1=N/[N+](=O)[O-]`, the displacement stood at 11.8%.

In the case of `COc1cccc(N2C(=O)CC(=O)NC2=O)c1`, the displacement was -8.2%. Under `CCOC(=O)c1c(-n2c(C)cc(C=C3C(=O)NC(=S)NC3=O)c2C)sc2c1CCCC2` stands 12%. Under `O=c1c2ccccc2nc(-c2ccco2)n1-c1ccccn1` stands -8.3%; under `O=C(Nc1ccc(Cl)cc1C(=O)c1ccccc1)c1ccc([N+](=O)[O-])cc1`, 2.1%. Under `Cc1nc2ccc(I)cc2c(=O)n1-c1ccc([N+](=O)[O-])cc1Cl` stands 13%; under `CN=C(C)c1c(O)n(C)c(=S)n(C)c1=O`, 8.8%; under `COc1cc(/C=C2/C(=O)NC(=O)N(c3ccccc3)C2=O)cc(Cl)c1O`, 7.5%. Turning to `c1ccc(CCCN2CCN(C3CCCCC3)CC2)cc1`, the displacement is -2.3%. Under `Cc1ccc(-c2nc3ccccc3c(=O)n2-c2cccnc2)cc1` stands -6.5%. With `Cc1cc(/C=C2\C(=O)NC(=O)N(c3cccc(Br)c3)C2=O)c(C)n1C`, the displacement was determined as 126%.

For `O=[N+]([O-])c1ccc(NCCCN2CCOCC2)c2cccnc12`, the displacement amounted to 15.1%. Under `COc1ccc(CCNCc2cccc(Br)c2)cc1OC` stands 11.9%; under `Cc1[nH]c2ccc(S(=O)(=O)O)cc2c1CCN`, 3.7%.

As for `Cc1cc(Cl)ccc1OCC(=O)N1CCN(C)CC1`, the displacement was -6.7%. Under `O=C(NC(O)C(Cl)(Cl)Cl)C1CC=CCC1` (stereo not given) stands -1%; under `O=[N+]([O-])c1cccc(CN2CCN(Cc3cccc(Br)c3)CC2)c1`, 8%.

Consider `CC(C)N1CCN(Cc2cccc(Br)c2)CC1`, for which the displacement was -4.4%. Under `CCCCCP(=O)(O)c1ccccc1` stands -11%; under `O=C1NC(=O)C(=Cc2cccc(O)c2)C(=O)N1`, -4.9%. Under `COc1ccccc1CN1CCNCC1` stands 1.8%. As to `Nc1ccc(Cc2ccc(N)c(Cl)c2)cc1Cl`, the displacement is -0.7%. For `Cc1cccc(C(=O)NC(Oc2ccccc2Cl)C(Cl)(Cl)Cl)c1` (stereo not given), the displacement was 11.7%. Under `CCOC(=O)c1ccc(-c2ccc(C=C3C(=O)NC(=S)NC3=O)o2)cc1` stands -6.7%. Under `CC(C)C1C(=O)NC(=S)N(c2ccccc2)C1=O` (stereo not given) stands -6.5%. Under `Clc1ccc(CCNCc2ccncc2)c(Cl)c1` stands 6.3%. Turning to `COc1cc(/C=C2\C(=O)NC(=O)N(c3ccc(Br)cc3)C2=O)ccc1O`, the displacement is -19.7%. For `COc1ccc(C(c2c(O)c3ccccc3oc2=O)c2c(O)c3ccccc3oc2=O)cc1CSc1ccccn1`, the displacement was -1.3%.

Take `CCC(C)N1CCN(Cc2cccc(OC)c2OC)CC1` (stereo not given): the displacement was -4.1%. Regarding `O=c1c2ccccc2nc(-c2ccc([N+](=O)[O-])cc2)n1-c1ccccc1`, the displacement was determined as 2%. On to `O=[N+]([O-])c1cccc(-c2cn(-c3ccccc3)c3[n+]2CCCS3)c1`, for which the displacement was 4.1%.

`CC(=O)OC1(c2ccccc2)CC(C)CN(C(C)(C)C)C1` (stereo not given): the displacement was found to be 2.6%. Under `Cc1cccc(N2C(=O)NC(=O)C(=Cc3ccco3)C2=O)c1` stands 12.2%; under `Cc1cccc(OP(=O)(Oc2ccccc2)Oc2cccc(C)c2)c1`, 16.4%.

`CN1CCN(c2ccc([N+](=O)[O-])c(N3CCN(C)CC3)c2Cl)CC1`: the displacement was 1.2%. With `Cc1ccc(S(=O)(=O)N2CCN(/C(N)=N/[N+](=O)[O-])CC2)cc1`, the displacement was 13.8%.

For the molecule `Cc1cc(OCc2ccccc2)c2c3c(c(=O)oc2c1)CCCC3`, the displacement is -3%. Under `CCc1ccc(/C=C2/C(=O)NC(=O)N(c3ccc(OC)cc3)C2=O)cc1` stands -18.1%; under `Cn1cccc1/C=C1/C(=O)NC(=S)N(c2ccc(Cl)cc2)C1=O`, 20.8%. Under `COc1ccccc1-n1c(Cc2ccccc2)nc2ccccc2c1=O` stands -13.5%; under `O=C1NC(=O)C(=Cc2cccc(Cl)c2)C(=O)N1`, -5.3%.

Turning to `CN1CC[C@@](O)(c2ccccc2)[C@@H]2CCC[C@@H]21`, the displacement is 1.7%. With `CCCCCCOC(=O)C1CN1C(Cc1ccccc1)C(=O)OC` (stereo not given), the displacement amounted to 14.4%.

Turning to `O=C(c1cccs1)C1CN2CCC1CC2` (stereo not given), the displacement was 14.6%. Under `COc1ccc(-n2c(/C=C/c3ccco3)nc3ccccc3c2=O)cc1` stands -27.1%; under `COc1ccc(OP(=O)(Oc2ccccc2)Oc2ccc(OC)cc2)cc1`, 5%; under `O=c1c2ccccc2nc(-c2ccc([N+](=O)[O-])cc2)n1-c1cccc(Cl)c1`, -5.2%. Under `Cc1cc(OCC(=O)OC(C)(C)C)c2c3c(c(=O)oc2c1)CCC3` stands 10.1%; under `CC(=O)c1ccc(OC(=O)Cc2ccccc2)cc1`, 14.1%. On to `CN1C(=O)NC(=O)/C(=C/c2ccc(Br)o2)C1=O`, for which the displacement was determined as 2.2%.

As for `COc1ccccc1N1CCN(C(=O)C(O)(c2ccccc2)c2ccccc2)CC1`, the displacement amounted to 0.5%. Under `O=c1[nH]c(=O)n(-c2ccccc2)c(O)c1N=Nc1ccc(Br)cc1` stands 120%; under `C=CCc1cc(/C=C2\C(=O)NC(=O)N(c3cc(C)cc(C)c3)C2=O)cc(OCC)c1O`, -6.6%. As to `Cc1[nH]c2cc(S(=O)(=O)O)c(Oc3ccccc3)cc2c1CCN`, the displacement stood at 11.9%. For the molecule `COc1cc(CN2CCN(C(=O)Cc3ccccc3)CC2)cc(OC)c1O`, the displacement was 1.6%.

`O=C(Cn1c[n+]([N-][N+](=O)[O-])cn1)Nc1ccc(NC(=O)Cn2c[n+]([N-][N+](=O)[O-])cn2)cc1`: the displacement stood at 59.6%. Under `C[C@@H]1CC[C@@]2(NC1)OC1C[C@H]3C4CC=C5CC(O)CCC5(C)C4CCC3(C)C1[C@@H]2C` (stereo not given in full) stands -6.6%; under `CCCC1C(=O)NC(=S)N(c2ccccc2)C1=O` (stereo not given), -15.5%.

On to `O=c1c2ccccc2nc(-c2cccs2)n1-c1cnccn1`, for which the displacement was -0.8%. Under `N#CC1=C(N)Oc2c(c(=O)oc3ccccc23)C1c1ccccc1` (stereo not given) stands 0%. Under `C=CCN1C(=O)NC(=O)/C(=C/c2c3ccccc3cc3ccccc23)C1=O` stands -7.2%.

For `O=[N+]([O-])c1ccc(NCCNCCO)c2ncccc12`, the displacement was -26%. Under `CCc1ccc(N2C(=O)NC(=O)/C(=C/C=C/c3ccco3)C2=O)cc1` stands 8%; under `Cc1ccc(/C=C2/C(=O)NC(=O)N(c3ccc(Cl)cc3)C2=O)o1`, 36.2%; under `CN1C(=O)C(=Cc2ccccc2Cl)C(=O)N(C)C1=O`, -0.3%. Under `O=C(Cc1ccccc1)N1CCN(Cc2ccccc2)CC1` stands 11.6%; under `COc1ccc(Br)cc1CN1CCNCC1`, -22.2%. With `COc1cccc(CCNCc2c(F)cccc2F)c1`, the displacement worked out at 3.2%. For `COc1ccc(Br)cc1CN1CCN(C(=O)COc2ccccc2)CC1`, the displacement amounted to 2.5%.

On to `O=C(Nc1ccccc1)N1CNC(=N[N+](=O)[O-])NC1`, for which the displacement is -1.7%.

As for `CN1C(=O)C(=Cc2ccc(-c3cccc(C(=O)O)c3)o2)C(=O)N(C)C1=O`, the displacement is 13%.

With `O=C(Nc1ccc(Cl)c(-c2nc3ncccc3o2)c1)c1cccc(OCc2ccccc2)c1`, the displacement was -2.6%. In the case of `O=C1NC(=S)NC(=O)C1=Cc1ccc(O)cc1`, the displacement was -3.4%. Under `CC12CN3CC(C)(CN(C1)C31CCCC1)C2O` (stereo not given) stands -4.8%.

Turning to `C1=C(c2ccccc2)Nc2nonc2N=C1c1ccccc1`, the displacement was -1.1%. Consider `CN1CCN(/N=C/c2cccnc2)CC1`, for which the displacement is 0.7%. In the case of `Cc1ccc(-c2nc3ccccc3c(=O)n2-c2nccs2)cc1`, the displacement was -0.6%. With `CC1(C)CN1S(=O)(=O)c1ccccc1` (stereo not given), the displacement was -39.9%. Regarding `COc1cc(C=C2C(=O)N(C)C(=O)N(C)C2=O)ccc1OCCOc1ccccc1`, the displacement amounted to 54.3%. Take `COc1ccc(CN2CCN(Cc3cc(Br)ccc3O)CC2)cc1`: the displacement is 13.1%. Under `CN1CCN(c2ccc([N+](=O)[O-])c(NC3CC3)c2)CC1` stands 9.7%; under `C(=NCCCN1CCOCC1)c1c[nH]c2ccccc12`, 2.6%; under `COc1ccccc1-n1c(/C=C/c2cccnc2)nc2ccccc2c1=O`, -2.3%. Under `CC(C)C12CN3CCN(CC(C3)/C1=N\O)C2` stands -2.3%; under `O=C(COc1ccc2ccccc2c1)N1CCN(Cc2cccc(Cl)c2)CC1`, 6.9%; under `Cc1cc(Cl)ccc1NC1=NCC(C)S1` (stereo not given), -3.4%. As for `O=C(Nc1ccc(Br)cc1C(=O)c1ccccc1)c1ccc(F)cc1`, the displacement was determined as 8.4%. Under `CCOP(=S)(OCC)SCC(=O)NC(C)(CC)C(=O)O` (stereo not given) stands 13.9%; under `N/C(=N\[N+](=O)[O-])N1CCN(C(=O)c2ccco2)CC1`, 1.2%; under `CN1C2CCC1CC(=NOC(=O)c1ccc(F)cc1)C2`, -5.4%.

On to `Cc1cc(C=C2C(=O)NC(=O)NC2=O)c(C)n1-c1cccnc1`, for which the displacement was 6.3%. Under `O=c1n(Cc2ccccc2)c2ccccc2n1CC1CS1` (stereo not given) stands 6.5%; under `CCN1CCN(C(=O)COc2ccc(C34CC5CC(CC(C5)C3)C4)cc2)CC1`, -11.9%; under `N#CC(C#N)=Cc1ccc(Sc2ccccc2)o1`, -8.9%. As to `COc1ccc2[nH]cc(CCN)c2c1`, the displacement came out at 12.9%.

As for `O=C(CNC(=O)OCc1ccccc1)NCC(=O)Nc1ccc(Br)cc1C(=O)c1ccccc1`, the displacement came to 11.8%. With `Clc1cccc(CNCCc2ccc3c(c2)OCO3)c1`, the displacement is -14.3%. Consider `O=C1Nc2ccc(Br)cc2C(c2ccccc2Cl)=NC1O` (stereo not given), for which the displacement was determined as 13.3%. Under `O=C(O)Cn1cc(/C=C2\C(=O)NC(=O)N(c3ccc(Cl)cc3)C2=O)c2ccccc21` stands -16.9%; under `COc1ccccc1-n1c(/C=C/c2c[nH]c3ccccc23)nc2ccccc2c1=O`, -3.8%. For `COc1ccc(/C=C2\CC3C4CC=C5CC(O)CCC5(C)C4CCC3(C)C2=O)cc1` (stereo not given), the displacement came out at 5.1%. Take `O=[N+]([O-])c1ccc(CNCCc2cccc(F)c2)cc1`: the displacement came out at 2.2%. Under `O=P(Oc1ccccc1)(Oc1ccccc1)C(NCc1ccccc1)c1ccccc1` (stereo not given) stands 5.7%; under `CC(Nc1ccc([N+](=O)[O-])c2cccnc12)C12CC3CC(CC(C3)C1)C2` (stereo not given), 0%.

For the molecule `COc1ccc(CNCCc2ccc3c(c2)OCO3)c(OC)c1C`, the displacement turned out to be 15.1%. As to `COC(=O)C1C2C(=O)N(c3ccc([N+](=O)[O-])cc3)C(=O)C12c1ccc(C)cc1` (stereo not given), the displacement was -32.2%. Under `CCSc1nc2ccccc2c(=O)n1-c1cccc(C)c1` stands -5.6%; under `CCCCCCCOC(=O)CC(CN)c1ccccc1` (stereo not given), 11.1%. In the case of `O=Cc1cn(Cc2ccc(Cl)c(Cl)c2)c2ccccc12`, the displacement was 9.8%. Under `CN1C(=O)NC(=O)/C(=C/c2ccc(-c3cccc(C(=O)O)c3)o2)C1=O` stands -9.5%; under `COc1ccc(C=C(C#N)C#N)cc1OC`, 6%; under `COc1ccc(CN2CCN(Cc3ccc(SC)cc3)CC2)cc1`, 8.7%.
